Assay [1] concerns influenza virus, strains A/PR/8/34 (PR8). Kind of assay: Influenza infection lethality. It counts as in vivo, C57BL/6J mice. As to conditions: 100 ug/mouse IP for 5 consecutive days from day 2, 14 days.
Assay [2] shares this test system. As to conditions: given daily for five days beginning two days after influenza infection; cited from earlier work.

For the molecule `NC(=O)N(CCC(=O)O)NC(=O)[C@H](CO)NC(=O)[C@H](CO)NC(=O)N(N)Cc1ccccc1` [K883], in assay [1], the clinical scores result is listed as “lowered clinical scores” and the survival result is on record as “significant survival”.
For the molecule `NC(=O)[C@H](CCC(=O)O)NC(=O)[C@H](CO)NC(=O)[C@H](CO)NC(=O)[C@@H](N)Cc1ccccc1` [P5779], in assay [2], the reduction of mortality result is “approximately 9 fold”.

(Values after patent US11471507B2, “HMGB1 antagonist” (THE FEINSTEIN INSTITUTES FOR MEDICAL RESEARCH, priority 2019, dated 2022).)
